Consider 59 compounds from PubChem BioAssay AID1508624 (National Center for Advancing Translational Sciences (NCATS), 2021).

Among all 48,000 compounds or so, about 120 (0.25%) were called active. Roughly 4% stayed inconclusive and do not appear here. The call rests on the fitted dose curve; in most records, active means well fitted activation curve with a large enough effect; inconclusive means small, poorly fitted or top-dose-only effect, or another doubt; inactive means no such curve, though single readings can be large or run the other way. The list shows a part of the results.

The assay in a line: Primary qHTS for Identification of Small Molecule Activators of Huntingtin-Antisense Promoter Activity. Further: nearly all actives have a fitted effect of over 55% in size. The following applies: HEK293 HTT-AS promoter firefly luciferase reporter, 24 h; series mostly up to 57.5 µM; activity change, positive = activation: at the top concentration. The method, boiled down:
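Quantitative HTS used concentration series of up to 57.5 uM final on HEK293 luciferase reporter cells, 24 h at 37 degrees C. Readout was Dual-Glo firefly luminescence.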
As to `COc1ccc(NCc2cc3cc4c(cc3n(CC(=O)Nc3cc(C)ccc3C)c2=O)OCCO4)cc1`, the “activity change, positive = activation” value was inactive: 25.8%. The same measure for `CC(C)c1ccc(NS(=O)(=O)c2ccc3nc(-c4ccccc4)[nH]c3c2)cc1`: inactive: -18.1%; for `Cc1nn2c(=O)cc(COC(=O)c3ccccc3NC(=O)C(C)Oc3ccccc3)nc2s1` (centres undefined): inactive: -3.2%. Consider `CCOc1ccc(CN2CCc3nc(Nc4ccc5c(c4)OCCO5)ncc3C2)cc1`, for which the “activity change, positive = activation” value was inactive: 11.7%. As to `Cc1ccc(-n2c(=O)c3ccc(C(=O)NCc4ccco4)cc3n(Cc3ccccc3C#N)c2=O)cc1`, the “activity change, positive = activation” value is inactive: -12.5%. With `Cn1c(=O)c2cc(C(=O)NCCCN3CCN(c4ccccc4F)CC3)sc2c2ccccc21`, the “activity change, positive = activation” value is inactive: -8.58%. For `Cc1ccc(NC(=O)Cn2c(=O)n(Cc3ccco3)c(=O)c3ccccc32)c(C)c1` the value was inactive: -16%; for `CCN(CC)c1cc2c(cc1F)c(=O)c(S(=O)(=O)c1cccc(C)c1)cn2C`, inactive: -3.29%; for `CCOc1ccc(C2CC(=O)N(c3cccc(F)c3)C3=C2C(=O)OC3)cc1` (centres undefined), inactive: 15.9%.

Consider `Cc1ccc(-n2nc3c(=O)n(CCCC(=O)NCCc4ccccc4Cl)nc(C)c3c2C)cc1`, for which the “activity change, positive = activation” value is inactive: -14.9%. Consider `Cc1cccc(NC(=O)CSc2nc(-c3ccco3)cc(C(F)(F)F)n2)c1C`, for which the “activity change, positive = activation” value was inactive: -17.3%. For `Cc1cccc(N2CCN(S(=O)(=O)c3csc(C(N)=O)c3)CC2)c1C` the value was inactive: -57.1%. For `Cc1ccc(N(Cc2cccs2)C(=O)c2ccccc2Cl)cc1` the value was inactive: -24.6%. On to `CCOC(=O)c1ccc(NC(=O)c2cc3sccc3n2Cc2ccc(Cl)cc2)cc1`, for which the “activity change, positive = activation” value is inactive: -33.4%. Take `O=C(c1ccccc1Cl)N1CCCCC1CCN1CCCCC1` (centres undefined): the “activity change, positive = activation” value is inactive: -10%. Consider `COc1ccc(NC(=O)C(C)N(c2ccccc2)S(C)(=O)=O)cc1` (centres undefined), for which the activity change, positive = activation is inactive: 19% [at 11.5 µM, percent change from vehicle, -100% = no light]. For `COc1ccc(C)cc1NC(=O)Cn1c(=O)n(Cc2nc(C)no2)c(=O)c2ccccc21`, the “activity change, positive = activation” value was inactive: -11.9%. For the compound `CN(C)c1ccc(CN(CC2CCCO2)C(=O)COc2ccccc2Cl)cc1` (centres undefined), the “activity change, positive = activation” value was inactive: -33.3%. For `COc1ccccc1CNC(=O)Cc1c(C)c2c(cc(C)c3c(C)coc32)oc1=O` the value was inactive: -6.03%; for `COc1ccc(N(CC(=O)NCc2ccc(F)cc2)S(=O)(=O)c2c(C)noc2C)cc1`, inactive: -11.3%; for `N#Cc1ccc(-c2cccs2)nc1SCc1c(F)cccc1Cl`, inactive: -44.2%. Take `Cc1ccccc1C(=O)N(Cc1ccc(N(C)C)cc1)Cc1ccco1`: the “activity change, positive = activation” value is inactive: -23.1%. On to `COc1ccc(OC)c(-c2nc3c(C#N)c[nH]n3c2NC2CCCCC2)c1`, for which the “activity change, positive = activation” value is inactive: -15.4%. As to `CCCN(c1ccc(C(C)C)cc1)S(=O)(=O)c1ccc2c(c1)CCN2C(=O)CC`, the “activity change, positive = activation” value was inactive: -21.9%. For `O=C(CCc1nc2cccnc2n1Cc1cccs1)Nc1cccc(C(F)(F)F)c1` the value was inactive: -34.2%; for `O=C(c1ccc(C(F)(F)F)cc1)N1CCC(c2noc(-c3ccc(S(=O)(=O)N4CCCC4)cc3)n2)CC1`, inactive: -20.8%. For `NC(=O)c1ccccc1NC(=O)C1CCCN(c2ncnc3onc(-c4ccc(F)cc4)c23)C1` (centres undefined), the “activity change, positive = activation” value was inactive: -11.7%. On to `O=C(c1cccs1)N(Cc1cccnc1)c1nc2c(Cl)cccc2s1`, for which the “activity change, positive = activation” value is inactive: -18.2%.

On to `Cc1ccc(NC(=O)CN2C(=O)CCc3cc(S(=O)(=O)N4CCOCC4)ccc32)cc1N(C)C`, for which the “activity change, positive = activation” value was inactive: -11.1%.

As for `O=C(NC1CCCC1)c1ccc2c(c1)N(Cc1ccc(C(F)(F)F)cc1)C(=O)c1ccccc1S2`, the “activity change, positive = activation” value is inactive: -3.58%. `Cc1ccccc1Cn1c(=O)n(Cc2ccc3c(c2)OCO3)c(=O)c2oc3ccccc3c21`: the “activity change, positive = activation” value was inactive: -13.4%. Take `COCCCNS(=O)(=O)c1cc(-c2onc(C)c2C)ccc1OC`: the “activity change, positive = activation” value is inactive: -16.9%. For `COc1ccc(N2CCN(C(=O)CSc3n[nH]c(-c4ccccc4)n3)CC2)cc1` the value was inactive: -16.4%. Take `COc1ccc(-c2noc(CCC(=O)N(C)c3ccccc3C)n2)cc1`: the “activity change, positive = activation” value is inactive: -25%. The same measure for `CN(C)C(=O)c1ccc(NC(=O)Cn2nnnc2-c2ccccc2F)cc1`: inactive: -10.8%. The same measure for `COc1ccc(Nc2c3c(nc4ccc(NC(=O)/C=C/c5cc(OC)c(OC)c(OC)c5)cc24)CCCC3)cc1OC`: inactive: -76.5%; for `O=C(Nc1ccc(-c2nc3cc(NC(=O)c4ccccc4Cl)ccc3o2)cc1)c1ccccc1Cl`: inactive: -21.4%.

For `Cc1ccc2c(CC(=O)Nc3cccc(Cl)c3C)coc2c1`, the “activity change, positive = activation” value is inactive: 4.89%. The same measure for `Cn1c(=O)n(C/C=C/c2ccccc2)c(=O)c2c1nc1n2CCN1c1ccc(F)cc1`: inactive: -3.23%; for `COc1ccc(S(=O)(=O)NCCc2sc(C)nc2C)cc1F`: inactive: -31.8%; for `CCOC(=O)C1=C(C)NC(C)=C(C(=O)OCC)C1c1ccccc1/C=C/C(=O)OC(C)(C)C`: inactive: -24%. For `Cc1cccc(OCCCCn2c(C3CC(=O)N(c4ccccc4Cl)C3)nc3ccccc32)c1` (centres undefined) the value was inactive: -31%; for `Cc1ccc(-c2nc3cc(NC(=O)c4cc5ccccc5o4)ccc3o2)cc1`, inactive: 23.1%; for `CCN1C(=O)c2ccccc2Sc2ccc(NC(=O)COc3ccc(Cl)cc3)cc21`, inactive: -21.1%. The same measure for `COc1ccc(C(=O)CC2(O)C(=O)Nc3c(C)cccc32)c(OC)c1OC` (centres undefined): inactive: -11.5%; for `CCOc1ccc(-n2c(SCC(=O)Nc3cccc(Cl)c3)nc3c(oc4ccccc43)c2=O)cc1`: inactive: -16.3%. `CCOc1ccc(-c2cnc(NCc3ccc(C(F)(F)F)cc3)n2C)cc1`: the “activity change, positive = activation” value was inactive: -19.1%. For `CN1CCN(c2ncc3c(n2)CCN(Cc2cc(Br)cs2)C3)CC1` the value was inactive: -17.6%. On to `CN(C)c1ccc(CNC(=O)C2CCCN(S(=O)(=O)c3ccc4c(c3)oc(=O)n4C)C2)cc1` (centres undefined), for which the “activity change, positive = activation” value is inactive: -11.5%.

On to `COc1ccc(-c2ccc3c(N4CCOC[C@H]4C)nc(N4CCOC[C@H]4C)nc3n2)cc1CO`, for which the “activity change, positive = activation” value is inactive: -26.1%. The same measure for `Cc1cccc(OCC(=O)NC(Cc2c[nH]c3ccccc23)C(=O)O)c1C` (centres undefined): inactive: -1.64%; for `CC1=C(C(=O)Nc2ccc(Cl)cc2)C(c2ccccc2C)n2ncc(C(=O)Nc3ccc(C)cc3)c2N1` (centres undefined): inactive: -30.5%; for `COc1ccc(CCNC(=O)C(=O)NCC(c2ccc3c(c2)OCO3)N2CCOCC2)cc1` (centres undefined): inactive: -21.6%. For `O=C(Nc1cc(F)ccc1F)N1CCC(CN2CCOCC2)CC1` the value was inactive: -2.96%; for `COc1ccc(-n2cc(-c3ccccc3)c3c(NC4CCCCC4)ncnc32)cc1`, inactive: -29.7%. Regarding `Cn1c(=O)n(-c2ccc(C(C)(C)C#N)cc2)c2c3cc(-c4cnc5ccccc5c4)ccc3ncc21`, the “activity change, positive = activation” value is inactive: -25%. For `Cc1cc(OCCOCC[N+](C)(C)Cc2ccccc2)ccc1C(C)(C)CC(C)(C)C` the value was inactive: -49%; for `CC(NC(=O)c1ccc2c(c1)N(Cc1cccc(F)c1)C(=O)c1ccccc1S2)c1ccccc1` (centres undefined), inactive: -21.3%. For the compound `CCCCN(C)CCNC(=O)c1c(C)oc2ncnc(N3CCOCC3)c12`, the “activity change, positive = activation” value is inactive: -9.43%.
